According to PubChem BioAssay AID1476 (National Center for Advancing Translational Sciences (NCATS), 2009):
Values joined by “and” are separate entries in the source; they are usually repeats but may differ in a detail not shown here. Equal values may be shown once. The campaign covered roughly 200,000 compounds. About 4,500 (2.2%) were called active. Inconclusive results, whose numbers are uncertain, are shown with a selection of clear calls. The call rests on the fitted dose curve; in most records, active means well fitted inhibition curve with a large enough effect; inconclusive means small, poorly fitted or top-dose-only effect, or effect the other way; inactive means flat fitted curve, though single readings scatter. Where the call is inconclusive, the potency comes from a doubtful curve fit.

Biological target: Cruzipain (Trypanosoma cruzi) (UniProt P25779)
UniProt P25779, sequence (P25779 whole entry, looked up): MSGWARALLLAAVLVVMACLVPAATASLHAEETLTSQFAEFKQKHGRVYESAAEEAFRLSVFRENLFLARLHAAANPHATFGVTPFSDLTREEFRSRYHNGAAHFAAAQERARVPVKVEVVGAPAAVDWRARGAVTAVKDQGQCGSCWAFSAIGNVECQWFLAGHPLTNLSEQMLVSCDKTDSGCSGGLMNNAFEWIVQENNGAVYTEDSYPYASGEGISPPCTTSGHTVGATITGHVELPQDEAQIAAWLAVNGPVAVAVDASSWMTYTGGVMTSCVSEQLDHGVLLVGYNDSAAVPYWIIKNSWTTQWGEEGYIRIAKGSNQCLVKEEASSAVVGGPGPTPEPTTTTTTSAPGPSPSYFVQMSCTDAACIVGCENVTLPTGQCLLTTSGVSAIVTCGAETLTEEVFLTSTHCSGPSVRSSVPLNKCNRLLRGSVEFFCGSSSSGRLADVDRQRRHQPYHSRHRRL
Assay: qHTS Assay for Promiscuous and Specific Inhibitors of Cruzain (without detergent); further: nearly all actives have a fitted effect of over 40% in size;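 on max response, negative = inhibition: plate controls were enzyme without inhibitor for no effect and buffer without enzyme for full effect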
Details: purified cruzain, Z-FR-AMC fluorescence, no detergent
Procedure, shortened: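 Detergent-free condition (0.00005% Triton X-100) in acetate buffer pH 5.5 with DTT. 1.5 nM enzyme and compound were pre-mixed 15 min, then 2 uM Z-FR-AMC substrate added; reaction progress from fluorescence change between first and third reads (60 s).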
Potency means the concentration at half of the fitted maximal effect; tags describe the fitted curve by direction and shape.

| Structure (SMILES) | Potency | max response, negative = inhibition |
| --- | --- | --- |
| Cc1sc2ncnc(SC(C)C(=O)N3c4ccccc4Sc4ccccc43)c2c1C (centres undefined) | inconclusive: 31.6 µM [inhibitor, single point] | – |
| O=C(c1cc2c(s1)-c1ccccc1OC2)N1CCc2ccccc2C1 | inconclusive: 39.8 µM [inhibitor, single point] | – |
| O=C(COC(=O)/C=C/c1cccc(C(F)(F)F)c1)NCc1ccccc1 | inconclusive: 39.8 µM [inhibitor, single point] | – |
| COc1ccccc1N1CCN(C(=O)c2nc(-c3ccc(C)cc3)n3c2CCCCC3)CC1 | inconclusive: 39.8 µM [activator, single point] | – |
| CCC(C)c1ccc2oc(-c3ccc(NC(=O)Cn4cnc5c(=O)n(C)c(=O)n(C)c54)cc3)nc2c1 (centres undefined) | inconclusive: 10 µM [activator, partial curve] | – |
| COc1ccc(-n2c(SCC(=O)Nc3cc(C)cc(C)c3)nc3c(oc4ccccc43)c2=O)cc1 | inconclusive: 39.8 µM [inhibitor, single point] | – |
| CC(C)C(NC(=O)c1ccco1)C(=O)NCC(c1ccco1)N(C)C (centres undefined) | inconclusive: 31.6 µM [inhibitor, single point] | – |
| Cc1nn(C)c2c1c(-c1ccccc1)cc(=O)n2C(C)C(=O)NCCc1ccc(Cl)cc1 (centres undefined) | inconclusive: 31.6 µM [activator, single point] | – |
| Cc1cccc(C(=O)Nc2ccc(C(=O)/C=C/c3cccs3)cc2)c1 | inconclusive: 31.6 µM [inhibitor, single point] | – |
| Cc1cc(=O)[nH]c(SCc2nc3ccccc3n2Cc2ccccc2)n1 | – | inactive: 0.794% |
| Cc1cccc(CCNC(=O)c2ccc3c(c2)nc2n3CCOC2)c1 | – | inactive: -1.15% |
| O=C(c1ccc(S(=O)(=O)N2CCOCC2)cc1)N1CCN(c2ccc(F)cc2)CC1 | inconclusive: 20 µM [activator, single point] | – |
| COc1ccc(CC(=O)Nc2ccc(-c3nc4ccccc4s3)cc2Cl)cc1OC | inconclusive: 25.1 µM [activator, single point] | – |
| O=C(CC1CCCCC1)OCn1nnc2ccccc2c1=O | – | inactive: -3.38% |
| Cc1nc2cc(-c3ccccc3)nn2c(C)c1CCC(=O)NCCc1ccccc1 | inconclusive: 39.8 µM [activator, single point] | – |
| CCC1CCCCN1S(=O)(=O)c1ccc(NC(=O)c2nc(SC)ncc2Cl)cc1 (centres undefined) | – | inactive: -7.63% |
| CCOc1ccccc1OCCCC(=O)N1CCN(S(=O)(=O)c2cccc(F)c2)CC1 | inconclusive: 25.1 µM [activator, single point] | – |
| O=C(CNc1ccc2c(c1)OCO2)N/N=C\c1cn(Cc2ccc(F)cc2)c2ccccc12 | inconclusive: 15.8 µM [inhibitor, partial curve, poor fit] | – |
| CCc1ccc(N=CC23c4ccccc4C(c4ccccc42)C2C(=O)N(c4ccc(OC)cc4)C(=O)C23)cc1 (centres undefined) | inconclusive: 39.8 µM [activator, single point] | – |
| CS/C(=N\S(=O)(=O)c1cccs1)NC(=O)CSc1nc2ccccc2s1 | inconclusive: 31.6 µM [inhibitor, single point] | – |
| COc1ccc(OC)c(CNC(=O)CCc2c(C)nc3c(c2C)c(=O)n(C)c(=O)n3C)c1 | – | inactive: -8.67% |
| Cc1ccc2oc(=O)c(-c3nc4ccc(C)cc4[nH]3)cc2c1 | – | inactive: -0.941% |

| Structure (SMILES) | Potency | max response, negative = inhibition |
| --- | --- | --- |
| Cc1ccc(S(=O)(=O)Nc2nc3ccc(S(=O)(=O)N4CCCC4)cc3s2)cc1 | inconclusive: 6.31 µM [inhibitor, single point] | – |
| CCc1nnc(NS(=O)(=O)c2ccc(N=Cc3c(C)[nH]n(-c4cccc(Cl)c4)c3=O)cc2)s1 | inconclusive: 39.8 µM [activator, single point] | – |
| C(=C\c1nc2ccccc2[nH]1)/c1ccccc1 | active: 20 µM | – |
| COc1cccc(C2CC(c3cccs3)=NN2C(=O)CSc2nc3c(cnn3-c3ccc(F)cc3)c(=O)[nH]2)c1OC (centres undefined) | inconclusive: 20 µM [inhibitor, single point] | – |
| Cc1ccc(C(=O)N2c3ncnn3C3(CCCCC3)[C@@H]3CCCC[C@@H]32)cc1 | – | inactive: 9.53% |
| O=S(=O)(c1ccccc1)N1N=C(c2cccs2)CC1c1ccc(Br)cc1 (centres undefined) | inconclusive: 39.8 µM [inhibitor, single point] | – |
| COc1cccc(C(=O)N2CC(=O)Nc3ccc(C)cc3C2c2ccc(F)cc2)c1OC (centres undefined) | – | inactive: -1.47% |
| O=C(Nc1ccccc1)C1=C(O)CC(c2ccoc2)CC1=Nc1ccccc1 (centres undefined) | inconclusive: 31.6 µM [inhibitor, single point] | – |
| CSc1ccc(/C=C/c2nc3ccccc3c(=O)n2-c2cccc(Cl)c2C)cc1 | inconclusive: 39.8 µM [inhibitor, single point] | – |
| COc1ccc(NC(=O)C2CC(=O)N(Cc3ccc(C)cc3)C2)cc1S(=O)(=O)N1CCCCC1 (centres undefined) | inconclusive: 39.8 µM [activator, single point] | – |
| CC(OC(=O)CNC(=O)C12CC3CC(CC(C3)C1)C2)C(=O)Nc1ccc(N2CCOCC2)cc1 (centres undefined) | inconclusive: 25.1 µM [activator, single point] | – |
| COc1ccc(S(=O)(=O)N2CCN(Cc3nc4ccc(C)cc4o3)CC2)cc1OC | inconclusive: 39.8 µM [activator, single point] | – |
| Cc1ccc(-c2csc(NC(=O)/C=C/c3cccs3)n2)cc1C | inconclusive: 39.8 µM [inhibitor, single point] | – |
| CCOc1cc2sc(N3CCC(C(=O)Nc4ccc(C(C)C)cc4)CC3)nc2cc1Br | – | inactive: -5.7% |
| CCC(CC)C(=O)NCc1ccc2c(c1)cc(C)n2C | – | inactive: -5.27% |
| CC(=O)c1ccccc1Oc1nc(CN2CCOCC2)nc2scc(-c3cccs3)c12 | inconclusive: 39.8 µM [activator, single point] | – |
| COC(=O)C1=C(C(=O)OC)SC(=C2C(=S)C(C)(C)N(C(=O)C3CC3)c3ccccc32)S1 | inconclusive: 39.8 µM [inhibitor, single point] | – |
| C[C@@]1([C@@H](NP(=O)(c2ccccc2)c2ccccc2)c2ccccc2)C[C@H]1CCO | inconclusive: 31.6 µM [activator, single point] and inconclusive: 39.8 µM [activator, single point] | – |
| COc1ccc(CNC(=O)CCCCCn2c(SCC#N)nc3cc4c(cc3c2=O)OCO4)cc1 | inconclusive: 31.6 µM [inhibitor, single point] | – |
| COCCCn1cnc2c(c1=O)c1nc3ccccc3nc1n2-c1ccccc1 | inconclusive: 39.8 µM [activator, single point] | – |
| O=C(/C=C/c1cccc([N+](=O)[O-])c1)Nn1c(-c2ccccc2F)nc2ccccc2c1=O | inconclusive: 31.6 µM [inhibitor, single point] | – |
| COc1cccc(C2C(C(=O)Nc3ccc(Cl)cc3)=C(C)Nc3c(C(=O)Nc4ccccc4)cnn32)c1OC (centres undefined) | inconclusive: 31.6 µM [inhibitor, single point] | – |

| Structure (SMILES) | Potency | max response, negative = inhibition |
| --- | --- | --- |
| Cc1c(C)n(Cc2ccc(F)cc2)c2ccc(C(=O)N3CCN(c4ccc(Cl)cc4)CC3)cc12 | active: 7.94 µM | – |
| O=C(Nc1cccc(F)c1)N1CCCC2(CCN(C(=O)c3csnn3)CC2)C1 | – | inactive: -0.831% |
| N[C@H](C(=O)O)c1nn[nH]n1 | – | inactive: -8.3% |
| CC1(C)Cc2c(c(-c3ccccc3)[nH]c(=O)c2C#N)CS1 | – | inactive: 1.71% |
| Cc1cc(C)cc(NC(=O)c2sc3nc(-c4ccccc4)cn3c2C)c1 | inconclusive: 3.98 µM [activator, single point] | – |
| CC(=O)Nc1nonc1-c1nnc(SCc2ccc(F)cc2Cl)n1C | – | inactive: -3.79% |
| C=CCOC(=O)/C(=C/c1ccco1)NC(=O)/C=C/c1ccccc1 | – | inactive: -28.1% |
| COc1ccc(CCNC(=O)Cc2c(C)c3c(cc(C)c4c(C)c(C)oc43)oc2=O)cc1OC | – | inactive: 4.64% |
| CCOc1ccc(CNC(=O)CN2C(=O)CCn3nc(-c4cn(C)c5ccccc45)cc32)cc1OC | inconclusive: 39.8 µM [activator, single point] | – |
| Cc1noc(NS(=O)(=O)c2ccc(NC(=O)COc3ccc(Cl)cc3Cl)cc2)c1C | inconclusive: 31.6 µM [activator, single point] | – |
| CCOC(=O)C1CCN(C(=O)CSc2n[nH]c(-c3ccccc3Cl)n2)CC1 | – | inactive: -2.1% |
| CC1CCN(C(=O)c2ccc(N(C)S(C)(=O)=O)cc2)CC1 | – | inactive: 12.9% |
| O=C(Nc1ccc(NC(=O)c2cccs2)cc1)c1ccco1 | inconclusive: 39.8 µM [inhibitor, single point] | – |
| COc1ccc(C)cc1NC(=O)c1cc2c(s1)-c1ccccc1SC2 | active: 15.8 µM | – |
| CO/N=C(\Cn1ncc(N2CCCC2)c(Br)c1=O)c1ccc(Cl)cc1 | inconclusive: 31.6 µM [inhibitor, single point] | – |
| CCOC(=O)c1ccc(N2C(=O)CC(N(C)CCc3ccc(OC)c(OC)c3)C2=O)cc1 (centres undefined) | inconclusive: 31.6 µM [activator, single point] | – |
| Cc1ccc(S(=O)(=O)N2CCN(c3ccc([N+](=O)[O-])c4cccnc34)CC2)cc1 | inconclusive: 39.8 µM [inhibitor, single point] | – |
| Cc1cc(C)cc(NC(=O)CSc2nnc(COc3ccccc3Cl)o2)c1 | – | inactive: 9.63% |
| Cc1ccc(C)c(NC(=O)CCCN2C(=O)COc3ccc(C)cc32)c1 | – | inactive: 15% |
| COC(=O)c1sccc1-c1ccc(/C=N/OCc2c(Cl)cccc2Cl)o1 | inconclusive: 39.8 µM [inhibitor, single point] | – |
